Laboratory results as given in the supplement of paper PMC8728848.
The list shows a part of the results.

Legend:
Assay in all cases: glycan array binding signal (z-score within array); higher = stronger binding
Details in all cases: glycan notation: IUPAC condensed, linker removed
[1] = target: Fuc(a1-2)Gal
Summary of the method: (§1)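 From the Consortium for Functional Glycomics database, 3228 arrays were curated, keeping only those whose protein sequence was available. Binding is given as a within-array Z-score averaged across arrays sharing a protein sequence and across linkers. Negative Z-scores can be read as non-binding.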

[2] = target: Fuc(a1-2)Gal(b1-3)GalNAc
Summary of the method: as §1

[3] = target: Fuc(a1-2)Gal(b1-3)GalNAc(b1-3)Gal
Summary of the method: as §1

[4] = target: Fuc(a1-2)Gal(b1-3)GalNAc(b1-3)Gal(a1-4)Gal(b1-4)Glc
Summary of the method: as §1

[5] = target: Fuc(a1-2)Gal(b1-3)GalNAc(b1-4)[Neu5Ac(a2-3)]Gal(b1-4)Glc
Summary of the method: as §1

[6] = target: Fuc(a1-2)Gal(b1-3)GlcNAc
Summary of the method: as §1

[7] = target: Fuc(a1-2)Gal(b1-3)[Fuc(a1-4)]GlcNAc
Summary of the method: as §1

[8] = target: Fuc(a1-2)Gal(b1-4)Glc
Summary of the method: as §1

[9] = target: Fuc(a1-2)Gal(b1-4)GlcNAc
Summary of the method: as §1

[10] = target: Fuc(a1-2)Gal(b1-4)GlcNAc(b1-3)Gal(b1-4)GlcNAc
Summary of the method: as §1

[11] = target: Fuc(a1-2)Gal(b1-4)GlcNAc(b1-3)Gal(b1-4)GlcNAc(b1-3)Gal(b1-4)GlcNAc
Summary of the method: as §1

[12] = target: Fuc(a1-2)Gal(b1-4)[Fuc(a1-3)]GlcNAc
Summary of the method: as §1

[13] = target: Fuc(a1-2)GlcNAc
Summary of the method: as §1

[14] = target: Fuc(a1-2)[Gal(a1-3)]Gal
Summary of the method: as §1

[15] = target: Fuc(a1-2)[Gal(a1-3)]Gal(b1-4)GlcNAc
Summary of the method: as §1

[16] = target: Fuc(a1-2)[Gal(a1-4)]Gal(b1-4)GlcNAc
Summary of the method: as §1

[17] = target: Fuc(a1-2)[GalNAc(a1-3)]Gal
Summary of the method: as §1

[18] = target: Fuc(a1-2)[GalNAc(a1-3)]Gal(b1-4)GlcNAc
Summary of the method: as §1

[19] = target: Fuc(a1-2)[GalNAc(a1-4)]Gal(b1-4)GlcNAc
Summary of the method: as §1

[20] = target: Fuc(a1-2)[GalNAc(b1-3)]Gal
Summary of the method: as §1

[21] = target: Fuc(a1-3)GlcNAc
Summary of the method: as §1

[22] = target: Fuc(a1-3)[Gal(b1-4)]GlcNAc
Summary of the method: as §1

[23] = target: Fuc(a1-3)[Gal(b1-4)]GlcNAc(b1-3)Gal(b1-4)[Fuc(a1-3)]GlcNAc
Summary of the method: as §1

[24] = target: Fuc(a1-3)[Gal(b1-4)]GlcNAc(b1-3)Gal(b1-4)[Fuc(a1-3)]GlcNAc(b1-3)Gal(b1-4)[Fuc(a1-3)]GlcNAc
Summary of the method: as §1

[25] = target: Fuc(a1-3)[Gal3S(b1-4)]GlcNAc
Summary of the method: as §1

[26] = target: Fuc(b1-3)GlcNAc
Summary of the method: as §1

[27] = target: Gal(a1-2)Gal
Summary of the method: as §1

[28] = target: Gal(a1-3)Gal
Summary of the method: as §1

[29] = target: Gal(a1-3)Gal(b1-4)Glc
Summary of the method: as §1

[30] = target: Gal(a1-3)Gal(b1-4)GlcNAc
Summary of the method: as §1

B1: Siglec-G (Mus musculus), Q80ZE3 (protein)
chain: MSLLLFLLSFLLDGPQGQMESYFLQVQRIVKAQEGLCIFVPCSFSSPEGKWLNRSPLYGYWFKGIRKPSLSFPVATNNKDKVLEWEARGRFQLLGDISKKNCSLLIKDVQWGDSTNYFFRMERGFERFSFKEEFRLQVEALTQKPDIFIPEVLEPGEPVTVVCLFSWTFNQCPAPSFSWMGDAVSFQESRPHTSNYSVLSFIPGLQHHDTELTCQLDFSRMSTQRTVRLRVAYAPRSLAISIFHDNVSVPDLHENPSHLEVQQGQSLRLLCTADSQPPATLSWVLEDQVLSWSSPVGSRTLALELPWVKAGDSGHYTCQAENRLGSQQHTLDLSVLYPPQDLRVTVSQANRTVLEILRNAISLPVLEGQSLCLVCVTYSNPPANVSWAWVTQTLIPIQSSEPGVLELPLVQREHEGEFTCAAQNPLGAQRISLSLSVHYPPQMSSPSCSWEAKGLHCNCSSRAWPAPSLRWRLGEGLLEGNSSNASFTVTFSSLGPWVNSSLSLLQELGPSLWLSCESWNTHGAQTTSVLLLPDKDSATAFSKGAVLGFGITALLALCLIVVIVKTLQKKGTQEEPSRPKLSRGSTILDYINVVPKTRSLARNWKAEPDAPSRSSPLDTHFPKPKKKQKDPHFTYPGCPDPTSSSQVPVSENNPEELHYAALNFSRLRLQETQDPQDTYSDYTEVRVH
glycan array binding signal (z-score) [1]: -0.192
glycan array binding signal (z-score) [2]: 0.168
glycan array binding signal (z-score) [3]: -0.186
glycan array binding signal (z-score) [4]: -0.319
glycan array binding signal (z-score) [5]: -0.186
glycan array binding signal (z-score) [6]: -0.168
glycan array binding signal (z-score) [7]: 0.172
glycan array binding signal (z-score) [8]: -0.235
glycan array binding signal (z-score) [9]: -0.18
glycan array binding signal (z-score) [10]: -0.175
glycan array binding signal (z-score) [11]: -0.107
glycan array binding signal (z-score) [12]: -0.275
glycan array binding signal (z-score) [13]: -0.233
glycan array binding signal (z-score) [14]: -0.342
glycan array binding signal (z-score) [15]: -0.058
glycan array binding signal (z-score) [16]: -0.134
glycan array binding signal (z-score) [17]: -0.182
glycan array binding signal (z-score) [18]: -0.301
glycan array binding signal (z-score) [19]: 0.105
glycan array binding signal (z-score) [20]: -0.29
glycan array binding signal (z-score) [21]: -0.221
glycan array binding signal (z-score) [22]: -0.235
glycan array binding signal (z-score) [23]: -0.016
glycan array binding signal (z-score) [24]: -0.238
glycan array binding signal (z-score) [25]: -0.178
glycan array binding signal (z-score) [26]: 1.54
glycan array binding signal (z-score) [27]: -0.225
glycan array binding signal (z-score) [28]: -0.304
glycan array binding signal (z-score) [29]: -0.137
glycan array binding signal (z-score) [30]: -0.064
